The values below come from the supplement of paper PMC9446081.

Out of some 39,000 compounds screened, about 220 (0.56%) showed activity. The list shows a part of the results.
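Also: static incubation at 37 °C against the wild-type strain, values averaged over two biological replicates.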

This experiment relates to Escherichia coli K-12 BW25113. The experiment can be described thus: relative growth (OD600 normalised to plate interquartile mean) (fraction); higher = less growth inhibition, active = 0.2 or less. To be noted: 50 µM; LB; incubation time: overnight (16-24 h).
In the case of `Cc1ccc(S(=O)(=O)Nc2ccc3c(c2)C(=O)N([C@H](C)CO)C[C@@H](C)[C@H](CN(C)S(=O)(=O)c2ccc(F)cc2)OCCCC[C@@H](C)O3)cc1`, the relative growth was inactive: 1.02.

With `C[C@H]1CN([C@@H](C)CO)C(=O)c2cc(C#CC3(O)CCCC3)cnc2O[C@@H]1CN(C)C(=O)Cc1cccnc1`, the relative growth is inactive: 0.996.

Regarding `C[C@H]1CN([C@@H](C)CO)C(=O)CCCn2nncc2CO[C@H]1CN(C)C(=O)Nc1ccccc1C(F)(F)F`, the relative growth was inactive: 0.981.

Consider `CC(C)N1C[C@@H](CN(C)Cc2ccc(Oc3ccccc3)cc2)Oc2c(NC(=O)c3ccncc3)cccc2C1=O`, for which the relative growth is inactive: 1.02.

With `N#CCC1CCNCC1`, the relative growth is inactive: 0.998.

Consider `C[C@H]1CN([C@@H](C)CO)C(=O)c2cccc(NC(=O)C3CCCCC3)c2O[C@H]1CN(C)C(=O)Nc1cccc2ccccc12`, for which the relative growth was inactive: 1.

Take `CC(C)NC(=O)Nc1ccc2c(c1)CC(=O)N([C@H](C)CO)C[C@H](C)[C@@H](CN(C)Cc1ccc(-c3ccccc3)cc1)O2`: the relative growth was inactive: 1.02.

On to `O=C(O)CNc1ncccc1O`, for which the relative growth is inactive: 1.03.

In the case of `C=CCSCC=C`, the relative growth was inactive: 1.

For the compound `C[C@H](CO)N1C[C@H](C)[C@H](CN(C)Cc2ccc(C(=O)O)cc2)Oc2ccc(NC(=O)Nc3cccc4ccccc34)cc2C1=O`, the relative growth was inactive: 0.987.

With `COc1ccc(S(=O)(=O)Nc2cccc3c2O[C@H](CN(C)S(=O)(=O)c2ccc(OC)cc2)[C@@H](C)CN([C@H](C)CO)C3=O)cc1`, the relative growth was inactive: 0.987.

On to `C[C@@H]1CCCCO[C@@H](CN(C)C(=O)Nc2cccc3ccccc23)[C@H](C)CN([C@@H](C)CO)C(=O)c2cc(NC(=O)Nc3ccc(C(F)(F)F)cc3)ccc2O1`, for which the relative growth is inactive: 1.06.

Consider `C[C@H]1CN([C@@H](C)CO)S(=O)(=O)c2ccc(-c3ccccc3F)cc2O[C@@H]1CN(C)S(C)(=O)=O`, for which the relative growth was inactive: 1.03.

Consider `C[C@@H]1CN([C@H](C)CO)C(=O)c2cc(NS(=O)(=O)c3ccccc3)ccc2O[C@@H](C)CCCCO[C@H]1CN(C)Cc1ccc(C(=O)O)cc1`, for which the relative growth is inactive: 1.

For `N=C(N)SC=CC(=O)O`, the relative growth was inactive: 0.967.

Take `C[C@@H]1CN([C@H](C)CO)C(=O)c2cc(NC(=O)Nc3ccc(F)cc3)ccc2O[C@@H](C)CCCCO[C@@H]1CN(C)S(=O)(=O)c1ccc(Cl)cc1`: the relative growth was inactive: 1.06.

In the case of `C[C@@H]1CCCCO[C@@H](CN(C)C(=O)CCCN(C)C)[C@H](C)CN([C@@H](C)CO)C(=O)c2cc(N(C)C)ccc2O1`, the relative growth is inactive: 0.989.

Regarding `Cc1ccc(S(=O)(=O)Nc2ccc3c(c2)CC(=O)N([C@@H](C)CO)C[C@@H](C)[C@H](CN(C)S(=O)(=O)c2ccccc2)O3)cc1`, the relative growth is inactive: 0.982.

With `O=C1N[C@@H](Cc2c[nH]c3ccccc23)COC(=O)[C@@H](Cc2ccc(F)cc2)CCC=CC[C@H]1CC(=O)N(CCO)Cc1ccccc1`, the relative growth was inactive: 0.993.

Turning to `C[C@H]1CN([C@@H](C)CO)C(=O)c2cc(NC(=O)Nc3ccc(C(F)(F)F)cc3)ccc2O[C@H]1CN(C)C(=O)NC1CCCCC1`, the relative growth is inactive: 1.

As for `COCC#Cc1ccc([C@H]2[C@H]3CN(C(=O)C4CCOCC4)CC(=O)N3[C@H]2CO)cc1`, the relative growth was inactive: 1.05.

Turning to `CN(C)[C@@H]1C(=O)[C@@H](C(N)=O)C(=O)[C@@]2(O)C(=O)[C@@H]3C(=O)c4c(O)c(NC(=O)CN5CCCC5)cc(F)c4C[C@H]3C[C@@H]12`, the relative growth is active: 0.0357.

As to `C=CCN1C(=O)[C@@]2(O[C@@H](CCO)[C@H]([Si](C)(C)c3ccc(OC)cc3)[C@H]2C)c2cc(NC(=O)[C@H](C)O)ccc21`, the relative growth is inactive: 1.03.

Turning to `COc1ccc2c3c(n(c2c1)C)[C@@H](CO)N(C[C@]13CN(Cc2cccnc2)C1)S(=O)(=O)c1ccc(cc1)C`, the relative growth is inactive: 1.01.

As to `NCCCC(O)(P(=O)(O)O)P(=O)(O)O.O.O.O.[Na+]`, the relative growth is inactive: 1.11.

Take `O=C(C[C@H]1CC[C@H]2[C@@H](COC[C@H](O)CN2S(=O)(=O)c2ccc(Cl)cc2)O1)NCCN1CCCCC1`: the relative growth was inactive: 1.04.

Consider `COc1ccc(S(=O)(=O)N(C)C[C@@H]2OCCCC[C@@H](C)Oc3ccc(NC(=O)Nc4ccc(C(F)(F)F)cc4)cc3C(=O)N([C@@H](C)CO)C[C@H]2C)cc1`, for which the relative growth was inactive: 0.999.

With `C[C@H](CO)N1C[C@H](C)[C@H](CN(C)Cc2ccccc2)OCCCC[C@H](C)Oc2ccc(NS(=O)(=O)c3ccccc3)cc2C1=O`, the relative growth is inactive: 0.997.

`C[C@H](CO)N1C[C@H](C)[C@@H](CN(C)S(=O)(=O)c2ccc(Cl)cc2)Oc2ccc(NC(=O)CCCN(C)C)cc2CC1=O`: the relative growth is inactive: 0.991.

As to `CCCCOc1ccc(OCCCN2CCOCC2)cc1.Cl`, the relative growth was inactive: 1.06.

Take `COc1ccc(S(=O)(=O)N(C)C[C@H]2OCCCC[C@@H](C)Oc3ccc(NC(=O)Nc4ccccc4)cc3C(=O)N([C@H](C)CO)C[C@@H]2C)cc1`: the relative growth was inactive: 1.01.

`C[n+]1ccccc1/C=N/O`: the relative growth was inactive: 0.978.

Take `COCC(=O)N(C)C[C@@H]1Oc2cc(C#CCC3CCCC3)ccc2S(=O)(=O)N([C@@H](C)CO)C[C@H]1C`: the relative growth was inactive: 1.01.

In the case of `C[C@@H]1CN([C@H](C)CO)C(=O)Cc2cc(NC(=O)Nc3ccccc3)ccc2O[C@H]1CN(C)S(C)(=O)=O`, the relative growth was inactive: 1.01.

As for `CCOC(=O)N[C@@H]1CC(=O)N(C2CC2)C1`, the relative growth was inactive: 0.981.

In the case of `CCOC(=O)c1cn[nH]c1`, the relative growth was inactive: 0.994.

As to `C[C@H](CO)N1C[C@H](C)[C@H](CN(C)C(=O)Cc2ccccc2)OCCCC[C@H](C)Oc2ccc(NC(=O)C3CCCCC3)cc2C1=O`, the relative growth was inactive: 1.

Consider `Cc1cccc(Nc2ccccc2C(=O)O)c1C`, for which the relative growth was inactive: 1.01.

For the compound `C[C@H](CO)N1C[C@H](C)[C@@H](CN(C)S(=O)(=O)c2cccs2)OCCCC[C@H](C)Oc2ccc(NC(=O)Cc3ccccc3)cc2C1=O`, the relative growth is inactive: 1.03.

On to `Cc1ccc(S(=O)(=O)Nc2ccc3c(c2)CC(=O)N([C@H](C)CO)C[C@@H](C)[C@@H](CN(C)S(=O)(=O)c2cn(C)cn2)O3)cc1`, for which the relative growth was inactive: 1.04.

Regarding `CCC(C)n1ncn(-c2ccc(N3CCN(c4ccc(OCC5COC(Cn6cncn6)(c6ccc(Cl)cc6Cl)O5)cc4)CC3)cc2)c1=O.Cl.Cl` (centres undefined), the relative growth was inactive: 1.14.

Turning to `Cc1noc(C)c1NC(=O)Nc1cccc2c1O[C@H](CN(C)S(=O)(=O)c1ccccc1)[C@H](C)CN([C@H](C)CO)C2=O`, the relative growth is inactive: 0.996.

With `C[C@H](CO)N1C[C@H](C)[C@H](CN(C)C(=O)Nc2ccccc2)Oc2cc(C#C[C@@H](C)O)ccc2S1(=O)=O`, the relative growth was inactive: 1.

As to `Cc1noc(C)c1NC(=O)N(C)C[C@H]1OCCCC[C@H](C)Oc2ccc(NC(=O)Cc3ccccc3)cc2C(=O)N([C@H](C)CO)C[C@@H]1C`, the relative growth was inactive: 0.969.

Take `C[C@H](CO)N1C[C@H](C)[C@@H](CN(C)Cc2ccccc2)Oc2cc(C#CC(C)(C)O)ccc2S1(=O)=O`: the relative growth is inactive: 0.999.

For the compound `Cn1c(=O)c2c(nc(N(CCO)CCO)n2Cc2ccc(F)cc2)n(C)c1=O`, the relative growth was inactive: 1.

As for `COc1cccc(NC(=O)N2C[C@@H](O)COC[C@@H]3O[C@@H](CC(=O)NCc4ccccc4F)CC[C@H]32)c1`, the relative growth was inactive: 0.989.

Regarding `C[C@@H]1CCCCO[C@H](CN(C)Cc2ccncc2)[C@H](C)CN([C@@H](C)CO)C(=O)c2cc(NC(=O)c3ccccc3)ccc2O1`, the relative growth is inactive: 1.02.

As to `CC(C)NC(=O)Cn1ccc([N+](=O)[O-])n1`, the relative growth is inactive: 1.03.

`Nc1cccc(C2=NCCN2)c1`: the relative growth is inactive: 1.

For the compound `COc1ccc(CN(C)C[C@@H]2OCCCC[C@H](C)Oc3ccc(NS(=O)(=O)c4ccc(Cl)cc4)cc3C(=O)N([C@@H](C)CO)C[C@H]2C)cc1`, the relative growth is inactive: 0.957.

On to `CC(C)NC(=O)N(C)C[C@@H]1Oc2ccc(NC(=O)CCC(F)(F)F)cc2CC(=O)N([C@H](C)CO)C[C@@H]1C`, for which the relative growth is inactive: 0.959.

On to `NC(=O)N[C@H]1NC(=O)NC1=O`, for which the relative growth was inactive: 0.959.

Regarding `C[C@@H]1CN([C@H](C)CO)C(=O)c2cc(NS(=O)(=O)c3ccc(Cl)cc3)ccc2O[C@@H](C)CCCCO[C@@H]1CN(C)C(=O)NC1CCCCC1`, the relative growth was inactive: 1.02.

As for `Cc1cc(C(=O)Nc2cccc3c2O[C@H](CN(C)Cc2ccc4c(c2)OCO4)[C@@H](C)CN([C@@H](C)CO)C3=O)n(C)n1`, the relative growth was inactive: 1.

For `C[C@H]1CN([C@@H](C)CO)C(=O)c2cc(Br)cnc2O[C@@H]1CN(C)Cc1ccc2c(c1)OCO2`, the relative growth is inactive: 0.976.

Regarding `COc1ccc(NC(=O)[C@@H]2[C@H](c3ccc(C)cc3)CC(=O)N2C(=O)OCc2ccccc2)c2ncccc12`, the relative growth was inactive: 0.992.

For `C[C@@H]1CN([C@@H](C)CO)C(=O)Cc2cc(NS(C)(=O)=O)ccc2O[C@@H]1CN(C)C(=O)NC1CCCCC1`, the relative growth was inactive: 0.992.

Consider `C[C@H]1CCCCO[C@@H](CN(C)C(=O)C2CCCCC2)[C@@H](C)CN([C@@H](C)CO)C(=O)c2cc(NC(=O)Cc3ccccc3)ccc2O1`, for which the relative growth is inactive: 1.01.

Turning to `C[C@@H]1CCCCO[C@@H](CN(C)C(=O)C2CCCCC2)[C@H](C)CN([C@@H](C)CO)C(=O)c2cc(NC(=O)c3ccccc3)ccc2O1`, the relative growth is inactive: 1.

Consider `COc1oc(C(=O)NC2CCCCC2)c(-c2ccc(Cl)cc2)c1S(=O)(=O)c1ccccc1NC(C)=O`, for which the relative growth was inactive: 1.01.

In the case of `CC(C)(C)[S@@+]([O-])N1Cc2cc(C(=O)O)nc(-c3ccc(Br)cc3)c2[C@H]1CCO[Si](C)(C)C(C)(C)C`, the relative growth was inactive: 0.978.

`COc1ccccc1N1C(N)=NC(N)=NC1(C)C`: the relative growth was inactive: 0.995.

Take `CO[C@H]1CN(C)C(=O)c2cc(NC(=O)c3ccc(F)cc3)ccc2OC[C@H](C)N(C(=O)CN(C)C)C[C@@H]1C`: the relative growth was inactive: 1.06.
